This passage reports binding results from paper PMC5048754.

By UniProt entry, the sequences of proteins in these tests, tags left out. Where a name states a change or a piece, a line headed by the entry shows the natural chain unless it says otherwise. Chains listed by the source or under a name are the forms on record and can include a tag or linker. Residues count along the entry.
UniProt Q15691: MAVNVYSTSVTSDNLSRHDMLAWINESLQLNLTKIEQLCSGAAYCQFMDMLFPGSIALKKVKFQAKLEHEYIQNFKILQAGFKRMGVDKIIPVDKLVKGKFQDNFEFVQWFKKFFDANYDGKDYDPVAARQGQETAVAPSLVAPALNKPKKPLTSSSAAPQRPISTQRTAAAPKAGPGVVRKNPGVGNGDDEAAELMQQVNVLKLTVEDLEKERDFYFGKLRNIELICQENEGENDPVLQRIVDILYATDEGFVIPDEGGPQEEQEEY
GST-tagged calponin-homology (CH) domain of EB1 (1-115): residues 1-115 of Q15691
GST-tagged EB-homology domain (EBH) of EB1 (209-268): residues 209-268 of Q15691

For assay [1], the target named is HA-tagged C-terminal region of ASK1 (941-1374) (UniProt Q99683). As to the kind of experiment: co-IP; cells transfected with Flag-EB1 and different forms of ASK1 tagged with HA; immunoblotting (Figure 4g).
For assay [2], the target named is HA-tagged kinase domain of ASK1 (649-940) (UniProt Q99683). Described as above.
Assay [3] deals with endogenous apoptosis signal-regulating kinase 1 (ASK1) (human (endogenous in 293 T)) (UniProt Q99683). Description: co-IP; lysates of 293 T cells (transfected with HA-ASK1, GFP-EB1 or Flag-EB1, or untransfected), antibody-coated agarose beads, 4 °C for 2 h, immunoblotting.
Assay [4] concerns the target GST-tagged EB-homology domain (EBH) of EB1 (209-268) (UniProt Q15691). As to the kind of experiment: pull-down; GST pulldown from cells (293 T named for Figure 4h) transfected with GST-tagged forms of EB1 and HA-ASK1 or ASK1 domains, glutathione-coated agarose beads, 4 °C for 2 h, immunoblotting.
For assay [5], the target named is GST-tagged calponin-homology (CH) domain of EB1 (1-115) (UniProt Q15691). The description is as above.
For assay [6], the target named is HA-tagged apoptosis signal-regulating kinase 1 (HA-ASK1) (UniProt Q99683). As to the kind of experiment: co-IP; lysates of 293 T cells (transfected with HA-ASK1, GFP-EB1 or Flag-EB1, or untransfected), antibody-coated agarose beads, 4 °C for 2 h, immunoblotting.

These are yes or no findings as the source states them, for the method shown. Binding seen in cells or lysates may run through a third protein. Some results given as binding are weak or reduced against the parent protein; the word gives no strength.

In the case of Flag-EB1 (from UniProt Q15691 1-268), the binding result in assay [1], in assay [2] and in assay [3] was “binds” in each case. Take GFP-EB1 (from UniProt Q15691 1-268): in assay [3], the binding entry is “binds”. With “HA-tagged C-terminal region of ASK1 (941-1374) (from UniProt Q99683 941-1374) (domain or fragment)”, the binding result in assay [4] is recorded as “binds weakly”. Regarding “HA-tagged kinase domain of ASK1 (649-940) (from UniProt Q99683 649-940) (domain or fragment)”, in assay [5], the binding entry is on record as “binds”. As to “endogenous end-binding protein 1 (EB1) (from UniProt Q15691 1-268)”, the binding entry in assay [6] and in assay [3] was “binds” each time. With “p150^glued (from UniProt Q14203-1 1-1278)”, the binding entry in assay [6] is “no binding”.
